In PubChem BioAssay AID1865 (National Center for Advancing Translational Sciences (NCATS), 2009):
Hit rate of the full screen: of about 280,000 compounds, about 540 (0.19%) were called active. This list was built around the results that the source calls inconclusive (neither active nor inactive); the mix of calls is not that of the screen. Calls come from the whole dose curve; as a rule, active = well fitted activation curve with a large enough effect; inconclusive = small, poorly fitted or top-dose-only effect; inactive = flat fitted curve, though single readings scatter. Potencies of inconclusive entries are doubtful fits and often do not repeat.

assay: Quantitative High-Throughput Screen for Regulators of Epigenetic Control; conditions: murine LDR cells, GFP reporter derepression, 30 h; GFP activation: at 53.9 µM (top of the series); note: nearly all actives have a fitted effect of over 60% in size; for GFP activation: % of control where 0% means no effect
How it was run: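 Derepression of a silenced CMV-GFP reporter in murine LDR cells is scored by enumerating GFP-positive cells with a laser-scanning microplate cytometer after 30 hours of treatment at 37 C.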
Potency is the fitted concentration of half-maximal effect; tags give direction and shape of the fitted curve.

SMILES	GFP activation	Potency
CN(C)CCNC(=O)/C(=C/c1ccc(-c2ccc(Cl)cc2Cl)o1)NC(=O)c1ccccc1	inactive: 6.74%	
CCOC(=O)CSc1cccc2cccnc12		inconclusive: 5.01 µM [activator, single point]
c1ccc(Oc2nc(-c3ccccn3)nc3ccccc23)cc1		inconclusive: 35.5 µM [activator, single point]
COc1ccc(/C=C/C(=O)N(Cc2ccccc2)c2ccccn2)cc1OC		inconclusive: 35.5 µM [activator, single point]
COc1cccc(-n2c(-c3cccc(S(=O)(=O)N(C)C)c3)n[nH]c2=S)c1	inactive: -0.435%	
COc1ccc(N2C(=O)CC(Sc3nnnn3-c3ccc(F)cc3)C2=O)cc1 (stereo not drawn)		inconclusive: 5.62 µM [activator, single point]
C/C=C(/C)C(=O)OC1Cc2c(ccc3ccc(=O)oc23)OC1(C)C (stereo not drawn)		inconclusive: 3.98 µM [activator, single point]
CCc1ccc(NS(=O)(=O)c2ccc3[nH]c4c(c3c2)CCCCCC4)cc1		inconclusive: 14.1 µM [activator, single point]
Cc1cccc(-n2ncc(C(=O)NCc3ccc4c(c3)OCO4)c2C2CCN(C(=O)OC(C)(C)C)CC2)c1	inactive: 4.63%	
N#Cc1cc2c(=O)n3ccccc3nc2n(Cc2ccco2)c1=NC(=O)c1ccco1		inconclusive: 35.5 µM [activator, single point]
CC(C)c1ccc(C2C(C#N)=C(N)N3C(=C2C#N)Sc2ccccc23)cc1 (stereo not drawn)		active: 20 µM
Cc1ccc(C(=O)NCCn2c(N)c(C#N)c3nc4ccccc4nc32)cc1		inconclusive: 31.6 µM [activator, single point]
COc1ccc(C(=O)NCCc2cc3ccc(C)c(C)c3[nH]c2=O)cc1OC		inconclusive: 7.08 µM [activator, full curve, poor fit]
Cc1cc(Nc2ccc(C)c(Cl)c2)n2nc(-c3ccccc3)nc2n1		active: 11.2 µM
CCOC(=O)/C(C#N)=C(C)/C=C1\Sc2ccccc2N1CC		inconclusive: 31.6 µM [activator, single point]
O=C(C1=C[C@@H](c2csc3ccccc23)C[C@@H](OCc2ccc(CO)cc2)O1)N1CCN(Cc2ccccc2)CC1		inconclusive: 31.6 µM [activator, single point]
COc1cccc(CNC(=O)Cn2c(=O)n3nc(-c4cccc(C)c4)nc3c3ccccc32)c1		inconclusive: 22.4 µM [activator, single point]
COc1ccc2c(C)nc(Nc3nc(C)cc(C)n3)nc2c1	inactive: -4.84%	
CCOC(=O)c1cccc(NS(=O)(=O)c2cc(Br)cc3c2N(C(=O)C2CC2)CC3)c1		inconclusive: 35.5 µM [activator, single point]
Cc1cccc(OCC(=O)Nc2cccc(C(=O)OCc3cc(=O)n4c(C)csc4n3)c2)c1		inconclusive: 35.5 µM [activator, single point]
Cc1cccc(-n2cnc3c(c2=O)c2nc4ccccc4nc2n3Cc2ccco2)c1		inconclusive: 31.6 µM [activator, single point]
Cc1ccc2c(c1)-c1c(cnn1CC(=O)N1CCN(c3cccc(C(F)(F)F)c3)CC1)CO2	inactive: 0.833%	
Cc1ccc(C2Nc3ccccc3-n3c(-c4ccccc4)c4c(=O)n(C)c(=O)n(C)c4c32)cc1 (stereo not drawn)		inconclusive: 35.5 µM [activator, single point]

SMILES	GFP activation	Potency
CCOC1=C/C(=C/c2c(N)n3nc(-c4ccccc4)sc3nc2=O)C=CC1=O	inactive: 2.01%	
Cc1cc(-c2n[nH]c(=S)n2/N=C/C(Cl)=C/c2ccccc2)n[nH]1		inconclusive: 25.1 µM [activator, single point]
CCCCn1c(NS(=O)(=O)c2ccccc2)c(S(=O)(=O)c2ccc(C)cc2)c2nc3ccccc3nc21	inactive: 0%	
Cc1ccc(-c2nnn(C/C(N)=N/O)n2)cc1		inconclusive: 31.6 µM [activator, single point]
CC(=O)N1c2ccccc2CC1C(=O)N1CCN(c2cc(Cl)ccc2C)CC1 (stereo not drawn)		inconclusive: 3.16 µM [activator, single point]
CCN(CC)c1ccc(/C=N/Nc2nc3ccccc3[nH]2)c(O)c1		inconclusive: 14.1 µM [activator, single point]
COC(=O)c1ccc(-n2nnc(-c3nsc(NC(=O)c4ccc(Cl)cc4)n3)c2C)cc1	inactive: 1.06%	
O=c1c(NCCc2ccc(Cl)cc2)nccn1-c1ccccc1	inactive: 3.04%	
CCCSc1ncc(Cl)c(C(=O)Nc2sc3c(c2C(N)=O)CCCC3)n1		inconclusive: 35.5 µM [activator, single point]
Cc1cccn2c(=O)c(/C=C3\SC(=S)N(CC(C)C)C3=O)c(NCCCOC(C)C)nc12		inconclusive: 1.78 µM [activator, full curve]
CN(c1ccccc1)S(=O)(=O)c1nnc(NC(=O)c2cccs2)s1		inconclusive: 28.2 µM [activator, single point]
CCOc1ccc(NC(=O)c2ccncc2)cc1	inactive: 0%	
Nc1c(C(=O)c2ccc(Cl)cc2)sc2nsc(SCCN3CCOCC3)c12		active: 20 µM
Cc1cccnc1Nc1nc(-c2ccc(O)cc2O)cs1	inactive: -1.89%	
O=C1C=CC(O)(c2cc(=O)c3c(O)cc(O)cc3o2)C=C1		inconclusive: 5.62 µM [activator, single point]
O=C(N/N=C/c1ccccn1)c1cc(-c2ccc(Br)cc2)nc2ccccc12		inconclusive: 20 µM [activator, single point]
O=c1c2ccccc2nc2ccc(NCc3ccco3)nn12		inconclusive: 25.1 µM [activator, single point]
CC(C)NC(=O)/C(=C/c1ccco1)c1ccccc1	inactive: 1.18%	
Cc1ccc(NS(=O)(=O)c2c(C(=O)N3CCC(C)CC3)c(C)n(C)c2C)cc1Cl		inconclusive: 6.31 µM [activator, single point]
N=c1c(S(=O)(=O)c2ccccc2)cc2c(=O)n3ccccc3nc2n1Cc1ccco1		inconclusive: 35.5 µM [activator, single point]
C=CCN1C(=O)/C(=C/c2ccc(N(C)C)cc2)S/C1=N\c1nnc(CC)s1		active: 12.6 µM
Cc1cc(NC(=O)/C=C/c2cccc(F)c2)n(-c2nc3ccccc3[nH]2)n1		inconclusive: 20 µM [activator, single point]
CC1(C)CCCN(C(=O)c2coc(=O)c(Br)c2)C1		inconclusive: 22.4 µM [activator, single point]

SMILES	GFP activation	Potency
O=C(/C=C\c1ccccc1)Oc1cccc2cccnc12		inconclusive: 35.5 µM [activator, single point]
Cc1ccc2c(C(=O)CN3CCC4(CC3)OCCO4)c(C)[nH]c2c1	inactive: -0.318%	
N#Cc1cccc(NC(=O)CSc2ccc3c4c(cccc24)C(=O)c2ccccc2-3)c1		active: 5.01 µM
Cc1ccc(C)c(NC(=O)Cn2c(=O)n(Cc3ccco3)c(=O)c3oc4ccccc4c32)c1		inconclusive: 25.1 µM [activator, single point]
CCOC(=O)c1c(-c2ccccc2)csc1NC(=O)/C(C#N)=C/c1ccc(O)c(OC)c1		active: 25.1 µM
O=C1NC(=O)C2C1C(c1ccccc1)N1C3C(=O)NC(=O)C3C(c3ccccc3)N21 (stereo not drawn)	inactive: -0.25%	
CC1CCc2nc(/C(C#N)=C/c3ccncc3)sc2C1 (stereo not drawn)		inconclusive: 7.08 µM [activator, partial curve]
CCN(CC)C(=O)/C(=C\c1ccc2c(c1)OCO2)NC(=O)c1ccc(Br)cc1	inactive: 1.03%	
CC1CCCC(C)N1C(=O)CSc1nc2ccccc2c(=O)[nH]1 (stereo not drawn)		inconclusive: 4.47 µM [activator, single point]
CCCCCCC#CC1C=CC(OC(=O)OCC)C(COC(=O)OCC)O1 (stereo not drawn)		inconclusive: 5.62 µM [activator, single point]
Cc1ccccc1C(=O)Nc1nnc(S(=O)(=O)N2c3ccccc3CC2C)s1 (stereo not drawn)		inconclusive: 28.2 µM [activator, single point]
CCCCn1c(SCC(=O)NCCCOC)nc2c(sc3ccccc32)c1=O	inactive: 0%	
Cc1cc(C)c(NC(=O)CSc2nc3nc(C)cc(C)n3n2)c(C)c1	inactive: 1.64%	
Cc1cc(C)c(NC(=O)CSc2ccc(-c3sc(-c4ccccc4)nc3C)nn2)c(C)c1		inconclusive: 25.1 µM [activator, single point]
CCc1ccc(C(=O)c2cn(CC(=O)Nc3ccc(OC)c(OC)c3)c3ccc(C)cc3c2=O)cc1		inconclusive: 11.2 µM [activator, partial curve]
CCc1ccc(OCC(=O)N(CC)CC)cc1		inconclusive: 35.5 µM [activator, single point]
CCOC(=O)c1ccc(NC(=O)c2cn(-c3ccccc3)nc2-c2ccncc2)cc1		inconclusive: 15.8 µM [activator, single point]
Cc1cc(NC(=O)c2cccs2)cc(-c2nc3cc(Cl)ccc3o2)c1O		inconclusive: 35.5 µM [activator, single point]
CCOC(=O)C1=C(C)N=c2s/c(=C\c3ccc(OC(C)=O)c(OCC)c3)c(=O)n2C1/C=C/c1ccccc1 (stereo not drawn)		inconclusive: 11.2 µM [activator, partial curve]
CCCCOc1ccc(CSc2nc(C)[nH]c2[N+](=O)[O-])cc1[N+](=O)[O-]	inactive: -1.02%	
Cc1ccc2nc(N(Cc3cccnc3)C(=O)COc3ccccc3)sc2c1		inconclusive: 35.5 µM [activator, single point]
Cc1nc(NC(=O)CSc2ccc(-c3nc4ccccc4[nH]3)cn2)sc1C		inconclusive: 31.6 µM [activator, single point]
